{"source": "the supplement of paper PMC3334620", "note": "Over roughly 33,000 sequences, “E-score (-0.5 to 0.5)” has its median near -0.056; the highest 2% begin near 0.38. The list shows a part of the results."}
{"biological_target": "Stb4 (UniProt P50104)", "experiment": "PBM E-score (8-mer binding enrichment) (E-score (-0.5 to 0.5)); higher = stronger / more preferred TF binding; most listed sequences are background and not binding sites", "conditions": "protein concentration: 200 nM; construct: GST-DNA-binding domain", "method_in_brief": "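For each ungapped eight-base word taken together with its reverse complement, the Universal PBM Analysis Suite assigned an E-score. Binding data came from GST-tagged yeast transcription factors, applied at about 100-200 nM, on universal all-10-mer Agilent arrays made double-stranded by primer extension. Fluorescent anti-GST marked bound protein, and scans were normalised with masliner.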"}
{"sequence": "CAGAACTA", "PBM E-score": -0.0215}
{"sequence": "ATCCAATA", "PBM E-score": 0.0175}
{"sequence": "AGCTACCG", "PBM E-score": 0.132}
{"sequence": "AGTGTACG", "PBM E-score": -0.0843}
{"sequence": "TATAAACA", "PBM E-score": -0.128}
{"sequence": "CGCTGACG", "PBM E-score": -0.169}
{"sequence": "TATGTGCA", "PBM E-score": -0.103}
{"sequence": "ACTGGCCA", "PBM E-score": -0.0879}
{"sequence": "GTCTCCGA", "PBM E-score": 0.352}
{"sequence": "AAATTAAA", "PBM E-score": -0.0365}
{"sequence": "ACGAAACA", "PBM E-score": -0.0702}
{"sequence": "AATCTGCC", "PBM E-score": 0.0815}
{"sequence": "GTCTGCCA", "PBM E-score": -0.126}
{"sequence": "GTACCCTA", "PBM E-score": -0.206}
{"sequence": "AACGTCTT", "PBM E-score": -0.199}
{"sequence": "GCATCAGA", "PBM E-score": -0.218}
{"sequence": "CCCCGGAG", "PBM E-score": 0.247}
{"sequence": "GTCACAAA", "PBM E-score": 0.0709}
{"sequence": "AATTCTCT", "PBM E-score": -0.0977}
{"sequence": "CAGTTTGA", "PBM E-score": -0.0855}
{"sequence": "GCCGCTCC", "PBM E-score": 0.103}
{"sequence": "ACACCTGT", "PBM E-score": -0.163}
{"sequence": "CGCTGCAA", "PBM E-score": -0.218}
{"sequence": "AAGGCGCT", "PBM E-score": -0.212}
{"sequence": "AACCGCAT", "PBM E-score": 0.15}
{"sequence": "ATCGCGAC", "PBM E-score": -0.121}
{"sequence": "AGTTCGCA", "PBM E-score": -0.158}
{"sequence": "CCCAACGG", "PBM E-score": 0.00018}
{"sequence": "AGAGGACA", "PBM E-score": -0.265}
{"sequence": "ATCTAACC", "PBM E-score": 0.177}
{"sequence": "CGAAGGCG", "PBM E-score": 0.119}
{"sequence": "GTGTCATA", "PBM E-score": 0.0481}
{"sequence": "CGTTTAAC", "PBM E-score": -0.194}
{"sequence": "ACTAAACT", "PBM E-score": -0.227}
{"sequence": "AATTGGCT", "PBM E-score": -0.0998}
{"sequence": "ATGACAAA", "PBM E-score": -0.201}
{"sequence": "CGAGCTAG", "PBM E-score": 0.0925}
{"sequence": "AAGCCACC", "PBM E-score": -0.221}
{"sequence": "CCTGAGAG", "PBM E-score": -0.247}
{"sequence": "ACCCGTTC", "PBM E-score": 0.251}
{"sequence": "CGCCGGTC", "PBM E-score": 0.0332}
{"sequence": "CCGAGCCC", "PBM E-score": 0.444}
{"sequence": "ATAGTTAA", "PBM E-score": -0.106}
{"sequence": "GTTGAGCA", "PBM E-score": -0.0611}
{"sequence": "GAAAGGAC", "PBM E-score": 0.121}
{"sequence": "GACAGCTC", "PBM E-score": -0.137}
{"sequence": "GATTGTGA", "PBM E-score": 0.0629}
{"sequence": "TACTCTCA", "PBM E-score": -0.314}
{"sequence": "CGAAGCGC", "PBM E-score": 0.144}
{"sequence": "GACAGGCC", "PBM E-score": -0.121}
{"sequence": "CGAAAGGC", "PBM E-score": 0.086}
{"sequence": "GCGGCAGA", "PBM E-score": 0.136}
{"sequence": "AGTTTGCC", "PBM E-score": 0.0128}
{"sequence": "AAAATTGA", "PBM E-score": -0.0524}
{"sequence": "CTACTGTA", "PBM E-score": -0.157}
{"sequence": "TGGTCTAA", "PBM E-score": -0.176}
{"sequence": "CCCTACCA", "PBM E-score": -0.102}
{"sequence": "AACTCAAG", "PBM E-score": -0.133}
{"sequence": "CGAAAGCG", "PBM E-score": 0.0228}
{"sequence": "ACTTGGCG", "PBM E-score": -0.18}
{"sequence": "GCGACCCC", "PBM E-score": -0.0691}
{"sequence": "AGTTGGTA", "PBM E-score": -0.223}
{"sequence": "AAGAATAG", "PBM E-score": -0.12}
{"sequence": "AATGGAAC", "PBM E-score": 0.0496}
{"sequence": "ACCAGAGC", "PBM E-score": -0.00449}
{"sequence": "GGGACATA", "PBM E-score": 0.131}
{"sequence": "ATCTCATG", "PBM E-score": -0.141}
{"sequence": "CCTTGTCG", "PBM E-score": -0.17}
{"sequence": "AGGGCTCC", "PBM E-score": -0.109}
{"sequence": "GCAAAGAC", "PBM E-score": -0.166}
{"sequence": "AACAGACG", "PBM E-score": 0.108}
{"sequence": "AAACTTCG", "PBM E-score": 0.132}
{"sequence": "ACATCGGC", "PBM E-score": 0.303}
{"sequence": "GCATTCAC", "PBM E-score": 0.164}
{"sequence": "ACAATAGT", "PBM E-score": -0.103}
{"sequence": "AAGAATAA", "PBM E-score": -0.236}
{"sequence": "AAGGAGCT", "PBM E-score": -0.192}
{"sequence": "CTACATGC", "PBM E-score": -0.11}
{"sequence": "GTCGTATA", "PBM E-score": -0.0318}
{"sequence": "CCAGACGA", "PBM E-score": -0.102}
{"sequence": "ATCTGGCA", "PBM E-score": -0.111}
{"sequence": "ACGGCAAG", "PBM E-score": 0.187}
{"sequence": "ACTTGGAA", "PBM E-score": -0.00131}
{"sequence": "AATGCCAC", "PBM E-score": -0.0906}
{"sequence": "GAATAGAC", "PBM E-score": -0.141}
{"sequence": "GTTGATCA", "PBM E-score": -0.182}
{"sequence": "CCAAAAGG", "PBM E-score": -0.262}
{"sequence": "CCTCAATC", "PBM E-score": 0.119}
{"sequence": "ACATAATA", "PBM E-score": -0.153}
{"sequence": "GTGGGTGA", "PBM E-score": -0.0392}
{"sequence": "ACTGATGA", "PBM E-score": -0.285}
{"sequence": "GAAACCGA", "PBM E-score": 0.304}
{"sequence": "AATCTAGG", "PBM E-score": -0.0333}
{"sequence": "AGCGTGTA", "PBM E-score": -0.174}
{"sequence": "ACAGTGTG", "PBM E-score": -0.241}
{"sequence": "CATCGGAG", "PBM E-score": 0.204}
{"sequence": "CTGATCAA", "PBM E-score": -0.123}
{"sequence": "CCAGCAGA", "PBM E-score": -0.172}
{"sequence": "CTGCAAGC", "PBM E-score": -0.0129}
{"sequence": "CAGATCTG", "PBM E-score": -0.205}
{"sequence": "AATTAAGT", "PBM E-score": 0.149}
{"sequence": "AATTCAGA", "PBM E-score": -0.123}
{"sequence": "CGACAAAC", "PBM E-score": 0.084}
{"sequence": "ACTGGAGC", "PBM E-score": -0.143}
{"sequence": "CGTCGTAC", "PBM E-score": -0.134}
{"sequence": "GGCACGAA", "PBM E-score": -0.0259}
{"sequence": "CAAAAGCG", "PBM E-score": -0.0484}
{"sequence": "GGAATTCA", "PBM E-score": 0.138}
{"sequence": "ACAAAACT", "PBM E-score": -0.101}
{"sequence": "CACGGGGG", "PBM E-score": 0.0174}
